Assay results: paper PMC6212790
The other results are listed elsewhere or left out. At the low end of the ranking the order means little.

Target: T1, GST-Rok-C97-191 (UniProt O34857)
T1 sequence: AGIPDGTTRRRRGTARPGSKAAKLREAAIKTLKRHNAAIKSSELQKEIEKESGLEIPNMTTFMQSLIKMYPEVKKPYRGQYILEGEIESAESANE
Assay: protein binding microarray;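 note: rank score from −0.5 (least bound) to 0.5 (best bound)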
Conditions: Rok is a gene silencer of Bacillus subtilis; high values mean tight binding; most listed sequences are background and not binding sites; double strand, one strand shown

Q: CGCCGATA was tested. Which binding signal did it give?
A: 0.114 E-score

Q: Which binding signal does the source give for CTATAAAA here?
A: 0.229 E-score

Q: How did the binding signal turn out when CGCTTTAG was run?
A: -0.0482 E-score

Q: CACTTATC was tested. Which binding signal did it give?
A: 0.189 E-score

Q: For ATCTAGTG, which binding signal is on record?
A: 0.364 E-score

Q: Which binding signal does the source give for ACTACCAT here?
A: 0.353 E-score

Q: With ACATGGAA as the sequence, how does the binding signal read?
A: 0.124 E-score

Q: For GGCTGATA, which binding signal is on record?
A: 0.0294 E-score

Q: Which binding signal does the source give for CAGAATCC here?
A: -0.18 E-score

Q: For AATGTTGG, which binding signal is on record?
A: 0.0745 E-score

Q: Which binding signal does the source give for CCTCTTCG here?
A: -0.26 E-score

Q: Which binding signal does the source give for ACCCTTCA here?
A: -0.0326 E-score

Q: How did the binding signal turn out when GAATTCGC was run?
A: -0.0316 E-score

Q: With ACAGATCT as the sequence, how does the binding signal read?
A: -0.1 E-score

Q: Which binding signal does the source give for ACAGCATA here?
A: 0.0594 E-score

Q: With ACTGTTAG as the sequence, how does the binding signal read?
A: 0.153 E-score

Q: With CCTGTAAC as the sequence, how does the binding signal read?
A: 0.0647 E-score

Q: For CATACCCC, which binding signal is on record?
A: -0.105 E-score

Q: TCTTCTCA was tested. Which binding signal did it give?
A: -0.00941 E-score

Q: For TTCGCGAA, which binding signal is on record?
A: -0.11 E-score

Q: Which binding signal does the source give for ACTGCTTA here?
A: 0.184 E-score

Q: AAGAAGTG was tested. Which binding signal did it give?
A: 0.201 E-score

Q: With GATACGTA as the sequence, how does the binding signal read?
A: 0.27 E-score

Q: With CCCATAGA as the sequence, how does the binding signal read?
A: -0.00793 E-score

Q: With ACGTGCAA as the sequence, how does the binding signal read?
A: 0.0838 E-score

Q: CCATTAGA was tested. Which binding signal did it give?
A: -0.0474 E-score

Q: How did the binding signal turn out when AACCGTAC was run?
A: 0.0358 E-score

Q: Which binding signal does the source give for AGGTGAAC here?
A: -0.0702 E-score

Q: Which binding signal does the source give for GCCTAGTA here?
A: 0.00863 E-score

Q: With ATATTCAA as the sequence, how does the binding signal read?
A: 0.081 E-score

Q: AGGTCGCA was tested. Which binding signal did it give?
A: -0.255 E-score

Q: Which binding signal does the source give for AGCTGCAA here?
A: 0.00509 E-score

Q: Which binding signal does the source give for GACGTCAC here?
A: -0.118 E-score

Q: How did the binding signal turn out when AGCGGTTA was run?
A: -0.0632 E-score

Q: Which binding signal does the source give for GAAAGCCC here?
A: -0.319 E-score

Q: ACTTTGCG was tested. Which binding signal did it give?
A: 0.105 E-score

Q: Which binding signal does the source give for CGGTGAAG here?
A: -0.0824 E-score

Q: How did the binding signal turn out when ATGTACTC was run?
A: 0.178 E-score

Q: For AGAGCTCG, which binding signal is on record?
A: -0.0322 E-score

Q: Which binding signal does the source give for GATTGCCC here?
A: -0.152 E-score

Q: Which binding signal does the source give for CACTTCAG here?
A: -0.0197 E-score

Q: CCTGGCCC was tested. Which binding signal did it give?
A: -0.0879 E-score

Q: Which binding signal does the source give for CCTGTCTC here?
A: -0.194 E-score

Q: For GAGCAGGA, which binding signal is on record?
A: -0.378 E-score

Q: GATAAGCC was tested. Which binding signal did it give?
A: 0.00512 E-score

Q: For CCTAACCA, which binding signal is on record?
A: -0.22 E-score

Q: For AAAATTCC, which binding signal is on record?
A: -0.024 E-score

Q: For ACGGTACG, which binding signal is on record?
A: 0.00316 E-score

Q: CGCCTGAA was tested. Which binding signal did it give?
A: -0.161 E-score

Q: With ACGTTCGG as the sequence, how does the binding signal read?
A: 0.0487 E-score

Q: With ACCGCTAT as the sequence, how does the binding signal read?
A: 0.065 E-score

Q: Which binding signal does the source give for AATGATAG here?
A: 0.282 E-score

Q: How did the binding signal turn out when ACTCAGAT was run?
A: 0.211 E-score

Q: CAAAAAGG was tested. Which binding signal did it give?
A: -0.139 E-score

Q: With AAAGGAAC as the sequence, how does the binding signal read?
A: -0.206 E-score

Q: CAATAGGG was tested. Which binding signal did it give?
A: -0.0812 E-score

Q: Which binding signal does the source give for GCGAAGAA here?
A: 0.0839 E-score

Q: With TAGTAGGA as the sequence, how does the binding signal read?
A: 0.252 E-score

Q: With ATAAGCCG as the sequence, how does the binding signal read?
A: 0.0878 E-score

Q: How did the binding signal turn out when AACCGTAT was run?
A: 0.132 E-score

Q: Which binding signal does the source give for AAATGTGA here?
A: 0.158 E-score

Q: Which binding signal does the source give for CGCACCGC here?
A: -0.244 E-score

Q: Which binding signal does the source give for AGTTATCG here?
A: 0.253 E-score

Q: Which binding signal does the source give for GTGTTAAC here?
A: -0.009 E-score

Q: Which binding signal does the source give for CGAGCCCC here?
A: -0.255 E-score

Q: How did the binding signal turn out when AGCGTATA was run?
A: 0.0511 E-score

Q: AATGGTAC was tested. Which binding signal did it give?
A: 0.274 E-score

Q: With GGAAACTA as the sequence, how does the binding signal read?
A: 0.354 E-score

Q: ACCGGCTG was tested. Which binding signal did it give?
A: -0.237 E-score

Q: GCTCCGTA was tested. Which binding signal did it give?
A: 0.128 E-score

Q: For GGCGTACA, which binding signal is on record?
A: -0.151 E-score

Q: AGAACCCA was tested. Which binding signal did it give?
A: -0.0526 E-score

Q: CCCAAGCA was tested. Which binding signal did it give?
A: -0.209 E-score

Q: How did the binding signal turn out when GCTTTGAC was run?
A: -0.0499 E-score

Q: Which binding signal does the source give for AGGCTTTG here?
A: -0.132 E-score

Q: CACCGAGA was tested. Which binding signal did it give?
A: -0.0831 E-score

Q: For AAGAACCG, which binding signal is on record?
A: -0.123 E-score

Q: For TATTGGAA, which binding signal is on record?
A: 0.0889 E-score

Q: CATGCTAG was tested. Which binding signal did it give?
A: 0.148 E-score

Q: Which binding signal does the source give for ACCGTCGT here?
A: 0.0875 E-score

Q: With CTCCCGAC as the sequence, how does the binding signal read?
A: 0.0178 E-score

Q: For TAACCAGA, which binding signal is on record?
A: -0.125 E-score

Q: How did the binding signal turn out when AGGTCGTA was run?
A: 0.0515 E-score

Q: CCTGGGTC was tested. Which binding signal did it give?
A: -0.243 E-score

Q: How did the binding signal turn out when ACACGGCT was run?
A: -0.175 E-score

Q: With CTGCGACC as the sequence, how does the binding signal read?
A: 0.0299 E-score
